The source of these data is patent US20080311122A1, “Antagonists of Hmgb1 and/or Rage and Methods of Use Thereof” (Medimmune, LLC, priority 2005, published 2008).

Data set [1] deals with T1, HMG1 peptides (Homo sapiens, UniProt P09429).
T1 sequence (P09429 150-183): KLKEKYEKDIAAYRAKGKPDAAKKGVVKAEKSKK
Briefly: HMG1 B Box and peptide mapping ELISA. It is filed as binding. The conditions noted are these: B Box peptide ELISA. The procedure:
(§1) HMG1 B Box and Peptide Mapping: Individual wells of a 96-well immunoplate (EIA/RIA plate, High binding, Costar) were coated with HMG1 B Box peptide amino acids 91-169 (FIG. 5A) or amino acids 150-183 (FIG. 5B) at 10 μg/ml in PBS at 4° C. overnight. The plate was then blocked with 4% milk powder dissolved in PBS at 37° C. for 1 hour. The blocking solution was removed and replaced with human anti-HMG1 antibodies at various concentrations (see FIGS. 5A-B). The plate was then washed (ELX-405 Plate washer, BIO-TEK) and secondary antibody (anti-human IgG-HRP, PIERCE) was added at a final concentration of 1:125,000 at 37° C. for 1 hour. HRP activity was detected with Sureblue HRP substrate (KPL). Plates were read at 450 nm using a Kinetic Microplate Reader (Molecular Devices). To obtain more detailed peptide mapping information, similar ELISA assays were performed using 16 biotinylated overlapping peptides spanning the HMGB1 protein from amino acid 1 to 215 as follows, maxisorp microtiter plate was coated with 2 μg/ml of NeutroAvidin (Pierce) overnight at 4° C. After washing and blocking with 1% BSA in PBS, the biotinylated peptides were individually added into the avidin coated wells and incubated for 30 min at room temperature. […] Detection was accomplished by adding 50 μl of tetramethylbenzidine (TMB) substrate (KPL) and the absorbance was read at […]. […]

The target in data set [2] is T2, HMG1 peptides (Homo sapiens, UniProt P09429).
T2 sequence (P09429 91-169 P98L): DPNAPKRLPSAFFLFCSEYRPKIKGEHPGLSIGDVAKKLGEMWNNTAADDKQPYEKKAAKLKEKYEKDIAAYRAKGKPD
Briefly: HMG1 B Box and peptide mapping ELISA. It is filed as binding. The conditions noted are these: B Box peptide ELISA. On the procedure:
as §1
The source holds these as a separate data set.

For data set [3], the system named is HMGB1 in untreated or LPS activated HUVEC cells. The experiment in a line: Immunofluorescence of HUVEC. It is filed as cell-based, human. On the procedure: Immunofluorescence: Intracytoplasmic (ic) HMGB1 was quantitated by direct immunofluorescence. HUVEC were harvested by trypsin-EDTA treatment and seeded on a glass coverslip. Once the cells are settled, they were stimulated with 0.2 μg/ml of LPS (Sigma) for 4 hours. The cells were fixed in 2% paraformaldehyde for 15 min and then permeabilized in 0.2% Triton X-100 for 2 min. Fixed and permeabilized cells were incubated with anti-HMGB1 antibodies at 1 μg/ml for 1 hour at room temperature. Cells were then washed to remove excess or nonspecifically bound primary antibody followed by incubation with anti human IgG conjugated with fluorescence (Pierce). The sections were mounted with fluoromount (Southern Associates, Birmingham, Ala.), and the images were processed with a Nikon microscope (Japan) and a SPOT imaging system (Diagnostic Instrument).

For the next data set, the target named is T3, HMG2 (Bos taurus, UniProt P40673).
T3 construct: from tissue; host or cells: calf thymus (as read from the sentence)
T3 sequence (P40673 1-209): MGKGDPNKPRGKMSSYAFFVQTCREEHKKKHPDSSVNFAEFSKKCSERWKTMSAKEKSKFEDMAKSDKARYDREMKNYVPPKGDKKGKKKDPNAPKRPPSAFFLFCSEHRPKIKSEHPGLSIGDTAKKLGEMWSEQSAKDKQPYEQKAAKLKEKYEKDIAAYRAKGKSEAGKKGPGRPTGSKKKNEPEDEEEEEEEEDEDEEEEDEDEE
The experiment in a line: Binding to HMG1 vs. HMG2 ELISA. Also on record: species or system calf. The conditions noted are these: immobilized antigen. On the procedure: Binding to HMG1 vs. HMG2: Ultra high-binding ELISA plates (ThermoLab systems, #3855) were coated with either 5 ug/mL of Calf thymus HMGB1 or HMBG2 diluted in 10 mM Phosphate buffered saline (PBS), pH 7.2 and incubate overnight at 4 degrees. The plates were washed twice with Ca and Mg free PBS and 100 microliters of anti-HMGB1 antibody diluted in 10 mM PBS, pH 7.2+1% bovine serum albumin (BSA) to a final concentration of 10 ug/mL was added to each well and the plates were incubated 1 hour at room temperature. The wells were washed three times with 100 μl of PBS, pH 7.2. HRP labeled goat-anti-human IgG Kappa-chain (KPL, #14-10-10) and goat-anti-human IgG Lambda-chain (KPL, #14-10-11) were diluted in 10 mM PBS+1% BSA 1:1000 and 100 μl were added to each well and incubated for 1 hour at room temperature. The wells were then washed three times with 100 μl of PBS, pH 7.2. OPD substrate (Pierce chemical company, #34006) was prepared following the manufacturers instructions and 100 μl of prepared substrate was added to each well and the plates incubated at room temperature in the dark for 20-30 minutes. The reaction was stopped with the addition of 100 μl of 2M H2SO4, and the plates read on a plate reader at a wavelength of 490 nm.

Data set [4] is described as follows: Isoelectric focusing gel electrophoresis. It is filed as physicochemical. The procedure: Isoelectric Focusing Gel Electrophoresis: Isoelectric points were determined using a Pharmacia Biotech Multiphor 2 electrophoresis system with a multi temp 3 refrigerated bath recirculation unit and an EPS 3501 XL power supply. Pre-cast ampholine gels (Amersham Biosciences, pI range 2.5-10) were loaded with 5 μg of protein. Broad range pI marker standards (Amersham, pI range 3-10, 8 μL) were used to determine relative pI for the Mabs. Electrophoresis was performed at 1500 V, 50 mA for 105 minutes. The gel was fixed using a Sigma fixing solution (5×) diluted with purified water to 1×. Staining was performed overnight at room temperature using Simply Blue stain (Invitrogen). Destaining was carried out with a solution that consisted of 25% ethanol, 8% acetic acid and 67% purified water. Isoelectric points were determined using a Bio-Rad Densitometer relative to calibration curves of the standards.

“Also recorded” adds a separate entry of the source.

B1: S6: human anti-HMG1 antibody, ATCC PTA-6143; VL/VH aa SEQ ID NO: 9/11 (antibody, listed as Homo sapiens, V domains shown)
VH: EVQLLESGGGLVQPGGSLRLSCAASGFTFSWYDMSWVRQAPGKGLEWVSRISPSGGYTMYADSVKGRFTISRDNSKNTLYLQMNSLRAEDTAVYYCARLEVGATSGGTAFDIWGQGTMVTVSS
VL: [gap - about 100 residues]
With B1, the “binding to HMG1 peptide 150-183” value with HMG1 peptides [1] is “do not bind either of the HMG1 B Box peptides”. The “binding to HMG1 peptide 91-169” value in the data set with HMG1 peptides [2] is on record as “do not bind either of the HMG1 B Box peptides”. Besides, the “immunostaining of HMGB1 in HUVEC” value in data set [3] was “did not recognize actively secreted HMGB1; also recorded: recognized nuclear HMGB1”. The “relative binding to HMG1 and HMG2” value in the data set with HMG2 is “specific for HMG1”. For the same molecule, in data set [4], the PI is 8.81.
